Lines with a small IC50 respond at low doses; where the fit passes the top or lowest dose, that dose stands as a limit. The AUC spans the tested range (256-fold, ending at the top dose) of the same fit: 1 means no effect, lower means more sensitive. For some assays here: Where the top dose is marked as inferred, it comes from the curve model; the source does not state it. For some assays here: Where an entry number is given, a second screen of the drug exists; the two often differ.
What was measured:
Experiment in all cases: Viability of human cancer cell lines after 72 h of drug (GDSC screen)
Sunitinib = compound: CCN(CC)CCNC(=O)c1c(C)[nH]c(/C=C2\C(=O)Nc3ccc(F)cc32)c1C [Sunitinib]; details: top dose 8 µM
Method: (§1)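 Human cancer cell lines in 384-well plates, medium with 10% serum, drug for 72 h over a 256-fold dose range (nine 2-fold or five 4-fold steps up to the top dose). Adherent lines were fixed and stained with the nucleic acid dye Syto60, suspension lines read with resazurin; signal relative to control wells, capped at 0 and 100%. One two-parameter sigmoid per drug and line, fitted in a mixed model over all curves with the slope shared within a line.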

GDC0941 = compound: CS(=O)(=O)N1CCN(Cc2cc3nc(-c4cccc5[nH]ncc45)nc(N4CCOCC4)c3s2)CC1 [GDC0941]; details: top dose 4 µM; screen: GDSC drug entry 1527; top dose inferred
Method: as §1

AR-42 = compound: CC(C)[C@H](C(=O)Nc1ccc(C(=O)NO)cc1)c1ccccc1 [AR-42]; details: top dose 5.12 µM; top dose inferred
Method: as §1

Pazopanib = compound: Cc1ccc(Nc2nccc(N(C)c3ccc4c(C)n(C)nc4c3)n2)cc1S(N)(=O)=O [Pazopanib]; details: top dose 8 µM
Method: as §1

MG-132 = compound: CC(C)C[C@@H](C=O)NC(=O)[C@H](CC(C)C)NC(=O)[C@H](CC(C)C)NC(=O)OCc1ccccc1 [MG-132]; details: top dose 1 µM
Method: as §1

SB 216763 = compound: Cn1cc(C2=C(c3ccc(Cl)cc3Cl)C(=O)NC2=O)c2ccccc21 [SB 216763]; details: top dose 10 µM; top dose inferred
Method: as §1

CEP-701 = compound: C[C@]12O[C@H](C[C@]1(O)CO)n1c3ccccc3c3c4c(c5c6ccccc6n2c5c31)CNC4=O [CEP-701]; details: top dose 2 µM; top dose inferred
Method: as §1

Row | Cell Line | AUC (Sunitinib) | IC50 (Sunitinib) [nM] | AUC (GDC0941) | IC50 (GDC0941) [nM] | AUC (AR-42) | IC50 (AR-42) [nM] | AUC (Pazopanib) | IC50 (Pazopanib) [nM] | AUC (MG-132) | IC50 (MG-132) [nM] | AUC (SB 216763) | IC50 (SB 216763) [nM] | AUC (CEP-701) | IC50 (CEP-701) [nM]
1 | HT-144 (melanoma, adherent) | 0.829 | 5760 | 0.82 | 2650 | 0.981 | > 5120 | 0.857 | 7730 |  |  |  |  |  | 
2 | H-EMC-SS (chondrosarcoma, adherent) | 0.769 | 3910 |  |  | 0.944 | > 5120 | 0.767 | 3870 | 0.876 | > 1000 |  |  |  | 
3 | HCC-33 (small cell lung carcinoma, adherent) | 0.966 | > 8000 |  |  | 0.367 | 137 | 0.985 | > 8000 | 0.842 | 714 |  |  |  | 
4 | U-698-M (B-cell leukaemia, suspension) | 0.97 | > 8000 | 0.785 | 1710 | 0.678 | 1000 | 0.857 | 6480 |  |  | 0.987 | > 10000 | 0.818 | 1130
5 | EHEB (lymphoid neoplasm, suspension) | 0.923 | > 8000 | 0.438 | 157 |  |  | 0.958 | > 8000 |  |  | 0.977 | > 10000 | 0.741 | 859
6 | SUP-HD1 (Hodgkin lymphoma, suspension) | 0.823 | 4410 | 0.892 | > 4000 | 0.398 | 170 | 0.95 | > 8000 |  |  | 0.976 | > 10000 | 0.478 | 109
7 | NK-92MI (lymphoid neoplasm, suspension) | 0.757 | 2580 |  |  |  |  | 0.976 | > 8000 | 0.732 | 271 |  |  |  | 
8 | JSC-1 (B-cell lymphoma, suspension) | 0.818 | 4450 |  |  | 0.26 | 66.4 | 0.971 | > 8000 |  |  | 0.984 | > 10000 | 0.523 | 145
9 | SW982 (soft tissue, adherent) | 0.778 | 3340 | 0.759 | 1430 | 0.604 | 624 | 0.854 | 6600 |  |  | 0.935 | > 10000 | 0.355 | 48.9
10 | CP67-MEL (melanoma, adherent) | 0.839 | > 8000 |  |  |  |  |  |  |  |  |  |  |  | 
11 | TE-11 (oesophagus, adherent) | 0.705 | 1780 | 0.803 | 1780 | 0.923 | > 5120 | 0.77 | 2790 |  |  | 0.99 | > 10000 | 0.656 | 324
12 | KP-N-RT-BM-1 (neuroblastoma, semi-adherent) | 0.887 | > 8000 |  |  |  |  |  |  |  |  |  |  |  | 
13 | EW-1 (Ewing sarcoma, semi-adherent) | 0.79 | 3240 | 0.928 | > 4000 | 0.295 | 89.5 | 0.971 | > 8000 |  |  | 0.989 | > 10000 | 0.799 | 870
14 | TE-8 (oesophagus, adherent) | 0.739 | 2550 | 0.801 | 2110 | 0.984 | > 5120 | 0.758 | 2950 |  |  | 0.982 | > 10000 | 0.762 | 764
15 | KLE (endometrium, adherent) | 0.911 | > 8000 | 0.675 | 1020 | 0.683 | 1390 | 0.94 | > 8000 |  |  | 0.961 | > 10000 | 0.776 | 1310
16 | HCE-4 (oesophagus, adherent) | 0.838 | 4330 | 0.558 | 351 | 0.965 | > 5120 | 0.964 | > 8000 |  |  |  |  |  | 
17 | no-10 (glioma, adherent) |  |  | 0.855 | > 4000 | 0.741 | 1860 | 0.978 | > 8000 | 0.497 | 61.4 | 0.976 | > 10000 | 0.906 | > 2000
18 | TE-9 (oesophagus, adherent) |  |  | 0.815 | 2300 | 0.984 | > 5120 | 0.9 | > 8000 | 0.725 | 281 | 0.986 | > 10000 | 0.652 | 336
19 | NCI-H1876 (small cell lung carcinoma, adherent) |  |  | 0.749 | 1310 | 0.611 | 647 | 0.957 | > 8000 | 0.834 | 660 | 0.986 | > 10000 | 0.778 | 818
20 | LAN-6 (neuroblastoma, adherent) |  |  | 0.944 | > 4000 | 0.862 | > 5120 | 0.982 | > 8000 | 0.744 | 362 | 0.96 | > 10000 | 0.821 | 1460
21 | LS-513 (large intestine, adherent) |  |  | 0.863 | 3710 | 0.688 | 1100 | 0.987 | > 8000 | 0.987 | > 1000 | 0.955 | > 10000 | 0.723 | 555
22 | C2BBe1 (large intestine, adherent) |  |  | 0.816 | 2600 | 0.667 | 1000 | 0.984 | > 8000 | 0.71 | 268 | 0.984 | > 10000 | 0.679 | 427

Reference: the supplement of paper PMC4967469
